Data published in the supplement of paper PMC4604168 (melanoma cell lines).
Some of the results follow. Repeats are few or missing, and single values can be far off.

Test system: MeWo
Test: cell count relative to DMSO control; melanoma cells; higher = more viable cells
Conditions: library dose: standard library concentration; 72 h
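Also: cells treated in 1,536-well plates, then fixed and DAPI-stained, with nuclei counted from automated high-throughput microscope images.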

Structure (SMILES)	cell count
NC(=O)c1ccc(N(C(N)=O)c2c(F)cccc2F)nc1-c1ccc(F)cc1F + Cc1cc([N+](=O)[O-])ccc1NS(=O)(=O)c1cc(Cl)ccc1Cl [FH535] (first compound 2 µM, partner dose 5 µM)	72.2%
Cc1ccc(NC(=O)c2cccc(N(C)C)c2)cc1NC(=O)c1ccc(O)cc1 + N#Cc1c(O)c2c(-c3ccc(-c4ccccc4O)cc3)csc2[nH]c1=O [A769662] (first compound 10 µM, partner dose 10 µM)	94.7%
NC(=O)c1ccc(N(C(N)=O)c2c(F)cccc2F)nc1-c1ccc(F)cc1F + COc1cc(N2CCC(N3CCN(C)CC3)CC2)ccc1Nc1ncc(Cl)c(Nc2ccccc2S(=O)(=O)C(C)C)n1 [NVP-TAE684] (first compound 2 µM, partner dose 0.4 µM)	60.1%
CCc1ccc(CCOc2ccc(CC3SC(=O)NC3=O)cc2)nc1 (stereo unspecified) [pioglitazone] + COc1ccc2c(c1)CCC1C2CCC2(C)C(NCCCCCCN3C(=O)C=CC3=O)CCC12 [U73122] (first compound 10 µM, partner dose 2 µM)	56.4%
NC(=O)c1ccc(N(C(N)=O)c2c(F)cccc2F)nc1-c1ccc(F)cc1F + COc1ccc2c(c1)CCC1C2CCC2(C)C(NCCCCCCN3C(=O)C=CC3=O)CCC12 [U73122] (first compound 2 µM, partner dose 2 µM)	49.7%
NC(=O)c1ccc(N(C(N)=O)c2c(F)cccc2F)nc1-c1ccc(F)cc1F + O=S(=O)(c1ccccc1)N(CC(F)(F)F)c1ccc(C(O)(C(F)(F)F)C(F)(F)F)cc1 [T0901317] (first compound 2 µM, partner dose 7 µM)	68.1%
CCCCCCCCc1ccc(CCC(N)(CO)CO)cc1 [fingolimod] + Cc1cc([N+](=O)[O-])ccc1NS(=O)(=O)c1cc(Cl)ccc1Cl [FH535] (first compound 10 µM, partner dose 5 µM)	37.1%
CCCCCCCCc1ccc(CCC(N)(CO)CO)cc1 [fingolimod] + COc1ccc2c(c1)CCC1C2CCC2(C)C(NCCCCCCN3C(=O)C=CC3=O)CCC12 [U73122] (first compound 10 µM, partner dose 2 µM)	17.2%
NC(=O)c1ccc(N(C(N)=O)c2c(F)cccc2F)nc1-c1ccc(F)cc1F + COC(=O)c1sccc1S(=O)(=O)Nc1ccc(Nc2ccccc2)cc1OC [GSK0660] (first compound 2 µM, partner dose 5 µM)	105%
CCCCCCCCc1ccc(CCC(N)(CO)CO)cc1 [fingolimod] + Cc1cc(Nc2cc(N3CCN(C)CC3)nc(/C=C/c3ccccc3)n2)n[nH]1 [ENMD2076] (first compound 10 µM, partner dose 0.2 µM)	62.6%
NC(=O)c1ccc(N(C(N)=O)c2c(F)cccc2F)nc1-c1ccc(F)cc1F + COc1ccc(-c2ccc3c(N4CCOCC4)nc(N4C[C@@H](C)O[C@@H](C)C4)nc3n2)cc1CO [KU0063794] (first compound 2 µM, partner dose 0.1 µM)	91.3%
CCCCCCCCc1ccc(CCC(N)(CO)CO)cc1 [fingolimod] + O=S(=O)(c1ccccc1)N(CC(F)(F)F)c1ccc(C(O)(C(F)(F)F)C(F)(F)F)cc1 [T0901317] (first compound 10 µM, partner dose 7 µM)	53.4%
CCCCCCCCc1ccc(CCC(N)(CO)CO)cc1 [fingolimod] + c1cc(-c2cnn3cc(-c4ccc(OCCN5CCCCC5)cc4)cnc23)ccn1 [Dorsomorphin] (first compound 10 µM, partner dose 2 µM)	28.4%
CC(C)(C)c1cnc(CSc2cnc(NC(=O)C3CCNCC3)s2)o1 + NCC(=O)Nc1ccc(-n2nc(C(F)(F)F)cc2-c2ccc3c(ccc4ccccc43)c2)cc1 [OSU03012] (first compound 0.05 µM, partner dose 5 µM)	90.4%
NC(=O)c1ccc(N(C(N)=O)c2c(F)cccc2F)nc1-c1ccc(F)cc1F + O=C(Nc1ccccc1)c1cc([N+](=O)[O-])ccc1Cl [GW9662] (first compound 2 µM, partner dose 10 µM)	67.7%
CCCCCCCCc1ccc(CCC(N)(CO)CO)cc1 [fingolimod] + N#Cc1c(O)c2c(-c3ccc(-c4ccccc4O)cc3)csc2[nH]c1=O [A769662] (first compound 10 µM, partner dose 10 µM)	31.4%
